Measured values published in PubChem BioAssay AID485360 (National Center for Advancing Translational Sciences (NCATS), 2010).
The campaign covered roughly 230,000 compounds. About 1,500 (0.65%) were called active. The shares of active, inactive and inconclusive entries below differ from those in the screen. Calls follow the shape of the dose curve; as a rule, active = well fitted inhibition curve with a large enough effect; inconclusive = small, poorly fitted or top-dose-only effect; inactive = no such curve, though single readings can be large or run the other way. Potencies of inconclusive entries are doubtful fits and often do not repeat.

What follows are compounds tested against Lethal(3)malignant brain tumor-like protein 1 (Homo sapiens) (UniProt Q9Y468) (assay: qHTS Assay for the Inhibitors of L3MBTL1). Conditions: AlphaScreen L3MBTL1–H3K9me1 peptide binding; activity, negative = inhibition: at 57.1 µM (top of the series).
Sequence of UniProt Q9Y468 (Q9Y468 whole entry, looked up): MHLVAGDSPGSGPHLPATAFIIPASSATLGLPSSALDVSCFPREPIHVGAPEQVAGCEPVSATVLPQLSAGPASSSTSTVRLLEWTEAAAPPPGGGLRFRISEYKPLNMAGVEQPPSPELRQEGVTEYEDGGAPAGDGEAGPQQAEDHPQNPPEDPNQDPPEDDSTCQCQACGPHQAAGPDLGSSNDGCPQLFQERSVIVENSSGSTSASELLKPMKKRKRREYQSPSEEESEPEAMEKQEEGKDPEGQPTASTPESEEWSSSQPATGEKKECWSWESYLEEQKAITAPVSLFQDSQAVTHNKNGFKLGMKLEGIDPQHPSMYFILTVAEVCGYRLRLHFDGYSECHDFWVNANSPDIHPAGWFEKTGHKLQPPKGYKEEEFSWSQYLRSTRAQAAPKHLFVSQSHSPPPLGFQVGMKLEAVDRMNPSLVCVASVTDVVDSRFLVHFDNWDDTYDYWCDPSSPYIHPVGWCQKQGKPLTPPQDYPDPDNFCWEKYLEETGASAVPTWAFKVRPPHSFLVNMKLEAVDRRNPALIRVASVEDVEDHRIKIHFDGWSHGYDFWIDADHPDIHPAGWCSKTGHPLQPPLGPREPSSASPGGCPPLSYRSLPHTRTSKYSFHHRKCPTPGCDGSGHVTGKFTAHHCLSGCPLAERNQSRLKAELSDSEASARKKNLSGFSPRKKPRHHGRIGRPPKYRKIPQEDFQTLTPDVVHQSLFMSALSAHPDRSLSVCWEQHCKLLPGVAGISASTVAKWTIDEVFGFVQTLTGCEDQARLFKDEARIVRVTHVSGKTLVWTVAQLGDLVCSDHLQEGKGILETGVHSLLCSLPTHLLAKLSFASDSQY
Method in brief: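 Read-out is AlphaScreen signal from streptavidin donor and nickel chelate acceptor beads (10 ug/mL final each) bridging L3MBTL1 (50 nM) and biotinylated K9-monomethylated H3(1-15) peptide (75 nM), after 30 min compound exposure at room temperature.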
% is scaled to controls: 0 for no effect and ±100 for the full control effect; potency is read from the fitted curve at half-maximal effect; tags tell the direction and shape of the fitted curve.
Also: nearly all actives have a fitted effect of over 60% in size.

Structure (SMILES) | Potency | activity, negative = inhibition
O=[N+]([O-])c1ccc(O)c(/C=N/NC2=NS(=O)(=O)c3ccccc32)c1 | inconclusive: 4.47 µM [inhibitor, partial curve] | –
O=C(O)c1ccc2c3c(ncnc13)-c1ccccc1C2=O | inactive | –
O=C(CCCn1c(=O)c2sccc2n(CC(=O)NCc2ccco2)c1=O)NCc1ccco1 | inconclusive: 25.1 µM [inhibitor, partial curve] | –
O=C(CN1CCCCCC1)N/N=C/c1ccc2ccccc2c1 | inactive | –
CC(=O)c1ccc(NC(=O)CNc2cc(S(=O)(=O)N3CCOCC3)ccc2N2CCCC2)cc1 | inactive | –
O=C(Cc1ccccc1)NC(c1ccco1)c1c(O)ccc2ccccc12 (centres undefined) | inactive | –
COc1ccccc1Nc1nc(C)c(C(=O)Nc2ccccc2)s1 | inactive | –
O=C(COC(=O)c1cccc(S(=O)(=O)N2CCN(c3ccccc3)CC2)c1)NCc1ccco1 | inconclusive: 22.4 µM [inhibitor, single point] | –
CCNc1nc(NCC)nc(NS(=O)(=O)c2ccc(N)cc2)n1 | inconclusive: 0.447 µM [inhibitor, single point] | –
COc1cc(/C=C2/C(C)=C(C#N)c3nc(N)c(C#N)c(C)c32)ccc1OCC(=O)O | inconclusive: 14.1 µM [inhibitor, partial curve, poor fit] | –
NNC(=O)c1cc(O)c(O)c(O)c1 | active: 0.562 µM | –
COc1ccc(NC(=O)c2cc(=O)[nH]c(=O)[nH]2)cc1S(=O)(=O)Nc1ccccc1Cl | inconclusive: 31.6 µM [inhibitor, partial curve] | –
O=c1cc(NCCc2ccccc2)c2ccccc2o1 | inactive | –
COc1ccc(-n2cc(CNCC3CCOCC3)c(-c3cccc(F)c3)n2)cc1 | inactive | –
CCCCN(C(=O)CSc1nnc(-c2ccc(OC)cc2)n1C(C)C)c1c(N)n(Cc2ccccc2)c(=O)[nH]c1=O | inactive | –
COc1ccc(O[C@H]2C=C[C@@H](c3ccccc3)O[C@@H]2COC(=O)CC/C(C)=N/O[C@@H](C)c2cn([C@H](CO)Cc3ccccc3)nn2)cc1 | inactive | –
CCc1noc(C)c1C(=O)Nc1cc(Cl)ccc1-n1cncn1 | inconclusive: 0.708 µM [inhibitor, single point] | –
NC(=O)C1(NC(=O)[C@@H]2CC3(CC(c4cccc(NC(=O)c5cc([N+](=O)[O-])cc([N+](=O)[O-])c5)c4)=NO3)CN2C(=O)c2ccccc2)CC1 (some centres undefined) | inactive | –
CN(C)CCCN(C(=O)CCc1ccccc1)c1nc2ccc(Cl)cc2s1 | inactive | –
O=C(CSc1ccccn1)N1CCc2ccccc21 | inconclusive: 39.8 µM [inhibitor, partial curve] | –
COc1cccc(NC(=O)C(=O)N2CCOCC2)c1 | inconclusive: 3.98 µM [inhibitor, single point] | –
CCCCN1C(=S)SC(C)(C)C1/[N+]([O-])=C/c1cccnc1 (centres undefined) | inconclusive: 6.31 µM [inhibitor, single point] | –
C[C@H](CO)N1C[C@H](C)[C@H](CN(C)S(C)(=O)=O)Oc2c(cccc2N(C)C)C1=O | inactive | –

Structure (SMILES) | Potency | activity, negative = inhibition
COc1ccc(CCN(C)C(=O)C2CCN(Cc3ccccc3)CC2)cc1OC | inconclusive: 44.7 µM [inhibitor, partial curve, poor fit] | –
Cc1cc(C(=O)COc2cccc3cccnc23)c(C)n1C | active: 11.2 µM | –
COc1ccc(CCNCC(=O)Nc2ccccc2C(F)(F)F)cc1 | inactive | –
O=C(CNCCC1=CCCCC1)Nc1ccc(N2CCCCCC2)cc1 | inconclusive: 28.2 µM [inhibitor, single point] | –
CCOC(=O)/C(C#N)=C/C=C1\C=Cc2ccccc2N1CC | inconclusive: 25.1 µM [inhibitor, partial curve, poor fit] | –
COc1ccccc1NS(=O)(=O)c1cc(NC(=O)c2ccncc2)ccc1N1CCOCC1 | inactive | –
CCOC(=O)c1nn(-c2ccc(F)cc2)c(=O)c2c(N)scc12 | inconclusive: 31.6 µM [inhibitor, partial curve] | –
N#Cc1ccccc1Cn1c(=O)n(Cc2ccc(C(=O)NCc3ccco3)cc2)c(=O)c2sccc21 | inconclusive: 39.8 µM [inhibitor, single point] | –
CCOCCc1c(O)nc(SCC(=O)NCc2ccco2)[nH]c1=O | inconclusive: 31.6 µM [inhibitor, single point] | –
COc1ccc(Br)cc1CN1CCCCCC1 | inactive | –
CNc1ccc(Br)cc(C(=O)/C=C/c2cccc(OC)c2)c1=O | inconclusive: 28.2 µM [inhibitor, single point] | –
Cc1ccc(C(=O)Nc2nc(-c3ccccn3)cs2)cc1S(=O)(=O)N1CCOCC1 | inconclusive: 35.5 µM [inhibitor, single point] | –
Cc1cccc(Cl)c1OCCN1CCCC1 | inactive | –
Nc1ccc(N2CCCCCC2)cc1 | active: 17.8 µM | –
CC(C)[C@@H](C(=O)NC1CCN(Cc2ccccc2)CC1)N1C(=O)N2CCc3c([nH]c4ccccc34)[C@@]2(C)C1=O | inconclusive: 39.8 µM [inhibitor, single point] | –
Cc1c([N+](=O)[O-])cc(C(=O)NCc2ccc(F)cc2)cc1[N+](=O)[O-] | inconclusive: 22.4 µM [inhibitor, single point] | –
CCN(CCCCCN(C)C)Cc1cc2ccccc2o1 | inconclusive: 39.8 µM [inhibitor, partial curve, poor fit] | –
Cc1csc2nc(COC(=O)c3ccc(Cl)c([N+](=O)[O-])c3)cc(=O)n12 | inactive | –
Nc1nc(-c2ccc(Cl)cc2)c(S(=O)(=O)c2ccccc2)s1 | inconclusive: 4.47 µM [inhibitor, partial curve] | –
CCN(CC)CCN1C(=O)C(O)=C(C(=O)c2sc(C)nc2C)C1c1cccnc1 (centres undefined) | inactive | –
C=CCn1c(SCc2cc(C(=O)OC)c(C)o2)nnc1-c1ccncc1 | inconclusive: 39.8 µM [inhibitor, partial curve] | –
COc1ccc(C(C)=O)cc1COC(=O)CSCC(=O)Nc1ccc(C)cc1 | inactive | –
Cc1ccc(S(=O)(=O)N2CCOCC2)cc1NC(=O)CN1CCN(C)CC1 | inactive | –

Structure (SMILES) | Potency | activity, negative = inhibition
CN1CCN(c2nc(-c3ccc(Br)cc3)nnc2-c2ccccc2)CC1 | inconclusive: 31.6 µM [inhibitor, partial curve] | –
CCc1ccc2c(c1)cc(C)c1nnc(SCC(=O)Nc3cc(OC)c(OC)cc3C(=O)O)n12 | inactive | –
COc1cccc(OCc2cc(/C=N/Nc3ccc(C(=O)O)cc3)ccc2OC)c1 | inconclusive: 39.8 µM [inhibitor, single point] | –
COc1ccc(NC(=O)C2CSC3c4ccccc4C(=O)N23)cc1 (centres undefined) | inactive | –
C/C(=N\Nc1ccc([N+](=O)[O-])cc1[N+](=O)[O-])C(C)C(C)C (centres undefined) | inconclusive: 0.112 µM [inhibitor, full curve, poor fit] | –
O=C1CSC(c2cn(-c3ccccc3)nc2-c2ccccc2)N1Cc1ccco1 (centres undefined) | inconclusive: 10 µM [inhibitor, partial curve] | –
Nc1nc(CCl)nc(Nc2cccc3ccccc23)n1 | inconclusive: 14.1 µM [inhibitor, partial curve] | –
COC(=O)c1cn(NC(=O)/C=C/c2cccc(OC)c2OC)c(=O)c2ccccc12 | inconclusive: 39.8 µM [inhibitor, single point] | –
CCOc1ccc(CN(C)CC(=O)Nc2cc(C)c(C)cc2[N+](=O)[O-])cc1 | inconclusive: 3.16 µM [inhibitor, full curve] | –
CCOc1cccc(=O)c2c(C)n(Cc3ccco3)c(C)c12 | inconclusive: 35.5 µM [inhibitor, single point] | –
NC(=O)C1=C[C@H](c2csc3ccccc23)C[C@H](OCc2ccc(CO)cc2)O1 | inconclusive: 0.126 µM [inhibitor, full curve, poor fit] | –
O=C(N/N=C/c1cc(Br)c(Br)o1)c1cccnc1 | inconclusive: 28.2 µM [inhibitor, partial curve] | –
CC1(C)CCN2CCC(C)(C)c3c(O)ccc1c32 | inconclusive: 20 µM [inhibitor, single point] | –
O=c1c(O)c(-c2ccc(O)cc2O)oc2cc(O)cc(O)c12 | – | inconclusive: -97.2% [inhibitor]
CCc1sc(C(=O)N2CCc3cc(OC)c(OC)cc3C2CC(=O)O)cc1C (centres undefined) | inactive | –
CCOc1ccccc1N1CCN(C(=S)NCc2ccco2)CC1 | inconclusive: 22.4 µM [inhibitor, partial curve] | –
CCOC(=O)C(=N/O)/C(C)=N/NC(=O)C(=O)Nc1cc(Cl)ccc1Cl | active: 25.1 µM | –
CCCOP(=O)(c1ccc(N(C)C)cc1)C(Nc1ccccc1)c1ccc(N(C)C)cc1 (centres undefined) | inconclusive: 12.6 µM [inhibitor, partial curve] | –
CCN1C(=O)/C(=C/C=C2\N(CC)c3cc(S(=O)(=O)N(C)C)ccc3N2c2ccccc2)SC1=S | inconclusive: 35.5 µM [inhibitor, single point] | –
COc1ccc(CCNC(=O)c2ccc(-c3cccc([N+](=O)[O-])c3)o2)cc1OC | inconclusive: 39.8 µM [inhibitor, single point] | –
COc1ccc(C(CCNCc2ccc(N(C)C)cc2)C(C)C)cc1 (centres undefined) | inconclusive: 3.16 µM [inhibitor, full curve] | –
CC1CCN(S(=O)(=O)c2ccc3c(c2)CCC(=O)N3CC(=O)Nc2cccc(C#N)c2)CC1 | inconclusive: 39.8 µM [inhibitor, single point] | –
CC(=O)NC(CC(=O)OCC(=O)c1ccc(NC(=O)CC(C)C)cc1)c1ccccc1 (centres undefined) | inconclusive: 39.8 µM [inhibitor, single point] | –
